From patent publication US20200030425 (published 2020)

Target: T1, human ICOS on activated CD4+ T cells (human)
T1 chain: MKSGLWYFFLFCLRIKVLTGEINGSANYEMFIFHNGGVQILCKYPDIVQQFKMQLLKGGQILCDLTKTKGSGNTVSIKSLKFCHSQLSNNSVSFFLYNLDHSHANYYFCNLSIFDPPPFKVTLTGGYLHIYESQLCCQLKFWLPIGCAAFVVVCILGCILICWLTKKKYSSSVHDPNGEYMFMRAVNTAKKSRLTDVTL
Test: FACS

EC50: ~0.07 µg/mL and ~0.08 µg/mL
B1: ICOS.33 IgG1f S267E (antibody)
chain 1: EVQLVESGGGLVKPGGSLRLSCAASGFTFSDYFMHWVRQAPGKGLEWVGVIDTKSFNYATYYSDLVKGRFTISRDDSKNTLYLQMNSLKTEDTAVYYCTATIAVPYYFDYWGQGTLVTVSSASTKGPSVFPLAPSSKSTSGGTAALGCLVKDYFPEPVTVSWNSGALTSGVHTFPAVLQSSGLYSLSSVVTVPSSSLGTQTYICNVNHKPSNTKVDKRV[human IgG1 Fc with changes not shown]
chain 2: DIQMTQSPSSLSASVGDRVTITCQASQDISNYLSWYQQKPGKAPKLLIYYTNLLAEGVPSRFSGSGSGTDFTFTISSLQPEDIATYYCQQYYNYRTFGPGTKVDIKRTVAAPSVFIFPPSDEQLKSGTASVVCLLNNFYPREAKVQWKVDNALQSGNSQESVTEQDSKDSTYSLSSTLTLSKADYEKHKVYACEVTHQGLSSPVTKSFNRGEC

Several values for one entry are separate records, joined by “and”; a condition that tells them apart may be missing. Equal values may be shown once.
